PubChem BioAssay
Inconclusive means that the source gave no clear call. Such entries were picked first, then a sample of the others. Calls of active or inactive are those of the source.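 How the source made its calls, unless noted: active means inhibition above 20% together with a positive visual image hit; inconclusive means visual image hit but inhibition not above 20%; inactive means no visual image hit.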

Test: inhibitors of TNFa-induced NFkB p65 translocation, primary screen, imaging, HUVEC, MLSMR starter and 10KST1 sets (AID 438);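 further: compound added about 3h40 before a 20 min TNFalpha stimulation; signal is the nuclear over cytoplasmic p65 intensity ratio per well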
Settings: HUVEC TNFa-induced p65 nuclear translocation, at 2 µM, active compounds read high, 0% TNFa-plus-vehicle, 100% no-TNFa wells

Row | Structure (SMILES) | inhibition
1 | C=CCSC1=C(C#N)C(c2ccccc2OCC)CC(=O)N1 (stereo not given) | inactive: -4.1%
2 | COc1ccc(CNC(=O)COC(=O)c2n[nH]c3ccccc23)cc1OC | inconclusive: 8.4%
3 | CCOC(=O)c1sc2ncn(/N=C/N(C)C)c(=O)c2c1C | inactive: -2.7%
4 | COc1cc2c(cc1NC(=O)CN1CCN(S(=O)(=O)c3ccc(F)cc3)CC1)oc1ccccc12 | inactive: -2.4%
5 | COc1cccc(N2CCN(c3ncnc4c3[nH]c3ccccc34)CC2C)c1 (stereo not given) | inconclusive: 17.3%
6 | Cc1cccc(N2CN=c3s/c(=C\c4ccncc4)c(=O)n3C2)c1 | inconclusive: 7.7% [cytotoxic]
7 | O=C1[C@@H]2C(c3ccccc3Cl)=NO[C@@H]2C(=O)N1Cc1ccccc1 | inconclusive: 15.1%
8 | COc1cc(C2C(C#N)=C(N)Oc3cc(N)ccc32)cc(OC)c1OC (stereo not given) | inconclusive: 13.7% [cytotoxic]
9 | CC(C)CCNC(=O)NC(=O)CSc1nnc(COc2ccccc2Cl)o1 | inconclusive: 13.8%
10 | COC(=O)c1ccc(N2C(=O)CC(N3CCN(C(=O)c4ccco4)CC3)C2=O)cc1 (stereo not given) | inconclusive: 13.8%
11 | COc1ccc(OCC(=O)OCCN(C)C)cc1 | inconclusive: 13.6%
12 | COc1ccc(-n2c(Cc3cccn3C)nnc2SCC(=O)Nc2cccc(Cl)c2)cc1 | active: 36.1%
13 | Cc1cc(C(C)(C)C)c(O)c(C)c1CC1=NCCN1 | inconclusive: 10.6%
14 | O=C(CN(Cc1ccco1)C(=O)CNS(=O)(=O)c1ccc(Cl)cc1)NCc1ccc(F)cc1 | inconclusive: 10.7%
15 | CC(C)CNS(=O)(=O)c1ccc(CCC(=O)NCc2ccco2)cc1 | active: 33.1%
16 | O=C(O)c1ccc(COCC(F)(F)C(F)F)o1 | inconclusive: 3.9%
17 | Clc1ccc(-c2nnc3sc(-c4ccc(Br)o4)nn23)cc1 | inconclusive: 8.5%
18 | CC(=O)c1ccc(NS(=O)(=O)c2ccccc2)cc1 | inactive: -4.8%
19 | CCOc1nnnc2c1sc1nc(N3CCOCC3)c3c(c12)CC(C)(C)OC3 | inactive: -3.2%
20 | c1cncc(C2Nc3ccccc3-c3nc4ccccc4n32)c1 (stereo not given) | active: 21.8%
21 | CCOC(=O)c1cc2c(=O)n3cccc(C)c3nc2n(CCc2ccccc2)c1=N | inconclusive: 14.9%
22 | CCC(NC(=O)Nc1nnc(C(F)(F)F)s1)(C(F)(F)F)C(F)(F)F | inconclusive: 9.3%

Test: native HEK Tl+ uptake effects, second counter-screen – HEK cells, counterscreen 2, counter-screen for KCC2 modulator project, confirmation (AID 1718;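 active means thallium flux slope above the same plate's solvent-control mean plus 3 SD in both duplicate wells; inconclusive means duplicate wells that disagreed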;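 further: run without ouabain in cells lacking the KCC2 cotransporter; slope of fluorescence scaled to its starting value between 10 and 20 s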)
Settings: HEK293 parental, thallium flux FluoZin-2 fluorescence slope; at 10 µM
Summary of the method: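 System: Parental HEK cells | Also added: Thallium sulfate stimulus buffer | Compound dosing: Single 10 µM final compound dose, 0.1% DMSO | Schedule: Overnight cell culture at 37 °C, 48 min dye loading, compound before thallium | Signal: FluoZin-2 fluorescence kinetics | Repeats: Replicate wells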

Row | Structure (SMILES) | thallium flux slope
23 | COCCNC(=O)c1cc(Br)ccc1Cl | inconclusive: 0.0109
24 | Cc1cccc(N=Nc2c(C)[nH]n(C(N)=S)c2=O)c1C | inconclusive: 0.0124
25 | O=[N+]([O-])c1cc(S(=O)(=O)Nc2cccc(C(F)(F)F)c2)ccc1-n1nnc2ccccc21 | inconclusive: 0.0106
26 | S=C(Nc1ccccc1)Nc1nc2ccccc2n1CCOc1ccccc1 | inconclusive: 0.0103
27 | Fc1ccc(/C=N/NC(=S)Nc2ccc(Cl)cc2Cl)cc1 | inconclusive: 0.011
28 | O=C(N/N=C/c1cn(-c2cccs2)nc1-c1ccccc1)c1ccccc1O | inconclusive: 0.0103
29 | Cn1cnc2cc(OC(=O)c3ccccc3)ccc21 | inconclusive: 0.0106
30 | Cc1cc(Br)ccc1-n1[nH]c(C)c(C=Nc2cccc3nsnc23)c1=O | inconclusive: 0.011
31 | COc1ccccc1/C=C/C=N/n1c(-c2ccc(Cl)cc2)n[nH]c1=S | inconclusive: 0.0103
32 | COc1cc(Cl)c(C)cc1NC(=O)CN(C)Cc1cccc(OC)c1OC | inconclusive: 0.0106
33 | Cc1cccc(N=C2NN=C(c3ccccc3F)CS2)c1C | inconclusive: 0.0128
34 | Cc1ccc(C2=NC3(CCCC3)NC2=S)cc1 | inconclusive: 0.0112
35 | Oc1ccccc1/C=N/NC(=S)NC1CC2CC1C1C=CCC21 (stereo not given) | inconclusive: 0.0102
36 | CC(=O)Oc1ccc(C(=O)Nc2nnc(C)s2)cc1 | inconclusive: 0.0106
37 | CC1(C)NC(=O)N(CC(=O)Nc2nc(-c3ccc(F)cc3)cs2)C1=O | inconclusive: 0.0102
38 | C/C(=N\NC(=O)c1cc(-c2cccs2)nc2ccccc12)c1ccccn1 | inconclusive: 0.014
39 | O=C(CSc1nc2c(c(=O)n1-c1ccccc1)SCC2)N1CCN(c2ccccc2)CC1 | inconclusive: 0.0098
40 | CCCCCCN1N=C(C)C(C(=O)c2ccc(Cl)cc2)C1=O (stereo not given) | inconclusive: 0.0112
